Measurements: the supplement of paper PMC9151546
Most values come without repeats; read them as rough.

Columns and labels:
CHO-K1 [1] = experiment: micronucleus frequency (% of nucleated events); higher = more micronuclei (genotoxic)
CHO-K1 [2] = experiment: hypodiploid nuclei frequency (% of nucleated events); higher = more hypodiploid events (aneugenic)
Protocol: (§1)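 Flow-cytometric in vitro micronucleus assay (Litron MicroFlow) in CHO-K1 cells in 96-well plates, 19 concentrations (4.5-200 µM, n=1 per concentration). Without S9, cells were exposed for 24 h and sampled at 48 h. With Aroclor 1254-induced rat liver S9, cells were exposed for 3-4 h and sampled at 27-28 h. Read-outs are %MN and %hypodiploid nuclei relative to nucleated events, and relative survival as the nuclei-to-bead ratio versus the 1% DMSO vehicle control (x100).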

CHO-K1 [3] = experiment: relative survival (nuclei to bead ratio vs DMSO control) (% of vehicle control); higher = more surviving cells
Protocol: as §1
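Wherever hypodiploid nuclei frequency (% of nucleated events) is given: hypodiploid nuclei gated on a flow cytometer with 488 nm excitation after SYTOX Green staining, cultures at 37 °C, positive controls vinblastine without S9 and cyclophosphamide with S9.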
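Wherever micronucleus frequency (% of nucleated events) is given: cells lysed with nuclei stained by SYTOX Green, then micronucleus-gated events counted against nucleated events by flow cytometry with 488 nm excitation.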
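Wherever relative survival (nuclei to bead ratio vs DMSO control) is given: Lysed-cell nuclei stained with SYTOX Green and counted against counting beads by flow cytometry at 488 nm excitation, with vinblastine (no S9) and cyclophosphamide (plus S9) as positive controls.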

CCOc1ccc2c(c1)C(C)=CC(C)(C)N2 [Ethoxyquin]
Conditions | hypodiploid nuclei frequency, CHO-K1 [2] [%] | micronucleus frequency, CHO-K1 [1] [%] | relative survival, CHO-K1 [3]
concentration: 4.5 (µM), S9 metabolic activation: with S9, exposure time: 3-4 hours | 0.08 | 1.16 | 107
concentration: 4.5 (µM), S9 metabolic activation: without S9, exposure time: 24 hours | 0.4 | 1.7 | 95.3
concentration: 5.63 (µM), S9 metabolic activation: with S9, exposure time: 3-4 hours | 0.18 | 0.84 | 106
concentration: 5.63 (µM), S9 metabolic activation: without S9, exposure time: 24 hours | 0.28 | 1.26 | 93.6
concentration: 7.04 (µM), S9 metabolic activation: with S9, exposure time: 3-4 hours | 0.26 | 1.36 | 110
concentration: 7.04 (µM), S9 metabolic activation: without S9, exposure time: 24 hours | 0.48 | 1.66 | 90.3
concentration: 8.8 (µM), S9 metabolic activation: with S9, exposure time: 3-4 hours | 0.38 | 0.7 | 95.7
concentration: 8.8 (µM), S9 metabolic activation: without S9, exposure time: 24 hours | 0.58 | 2.5 | 98.8
concentration: 11 (µM), S9 metabolic activation: with S9, exposure time: 3-4 hours | 0.36 | 1.24 | 107
concentration: 11 (µM), S9 metabolic activation: without S9, exposure time: 24 hours | 0.42 | 1.54 | 84.2
concentration: 13.7 (µM), S9 metabolic activation: with S9, exposure time: 3-4 hours | 0.16 | 0.98 | 92.7
concentration: 13.7 (µM), S9 metabolic activation: without S9, exposure time: 24 hours | 0.48 | 1.26 | 74.3
concentration: 17.2 (µM), S9 metabolic activation: with S9, exposure time: 3-4 hours | 0.14 | 1.2 | 102
concentration: 17.2 (µM), S9 metabolic activation: without S9, exposure time: 24 hours | 0.62 | 3.26 | 88.1
concentration: 21.5 (µM), S9 metabolic activation: with S9, exposure time: 3-4 hours | 0.1 | 1.5 | 133
concentration: 21.5 (µM), S9 metabolic activation: without S9, exposure time: 24 hours | 0.34 | 2.26 | 89.9
concentration: 26.8 (µM), S9 metabolic activation: with S9, exposure time: 3-4 hours | 0.18 | 1.24 | 110
concentration: 26.8 (µM), S9 metabolic activation: without S9, exposure time: 24 hours | 0.5 | 1.74 | 70.8
concentration: 33.6 (µM), S9 metabolic activation: with S9, exposure time: 3-4 hours | 0.2 | 1.06 | 128
concentration: 33.6 (µM), S9 metabolic activation: without S9, exposure time: 24 hours | 0.64 | 2.28 | 83.5
concentration: 41.9 (µM), S9 metabolic activation: with S9, exposure time: 3-4 hours | 0.14 | 1.16 | 108
concentration: 41.9 (µM), S9 metabolic activation: without S9, exposure time: 24 hours | 0.38 | 1.96 | 93.1
concentration: 52.4 (µM), S9 metabolic activation: with S9, exposure time: 3-4 hours | 0.16 | 1.22 | 97.3
concentration: 52.4 (µM), S9 metabolic activation: without S9, exposure time: 24 hours | 0.4 | 2 | 82.2
concentration: 65.5 (µM), S9 metabolic activation: with S9, exposure time: 3-4 hours | 0.24 | 1.26 | 106
concentration: 65.5 (µM), S9 metabolic activation: without S9, exposure time: 24 hours | 0.62 | 3.24 | 74
concentration: 81.9 (µM), S9 metabolic activation: with S9, exposure time: 3-4 hours | 0.12 | 1.2 | 89.6
concentration: 81.9 (µM), S9 metabolic activation: without S9, exposure time: 24 hours | 0.76 | 4.22 | 75.9
concentration: 102 (µM), S9 metabolic activation: with S9, exposure time: 3-4 hours | 0.26 | 2.14 | 80.5
concentration: 102 (µM), S9 metabolic activation: without S9, exposure time: 24 hours | 1.82 | 8.74 | 57.3
concentration: 128 (µM), S9 metabolic activation: with S9, exposure time: 3-4 hours | 0.24 | 2.06 | 63.6
concentration: 128 (µM), S9 metabolic activation: without S9, exposure time: 24 hours | – | – | 36.5
concentration: 160 (µM), S9 metabolic activation: with S9, exposure time: 3-4 hours | 0.17 | 3.38 | 52.8
concentration: 160 (µM), S9 metabolic activation: without S9, exposure time: 24 hours | – | – | 25.7
concentration: 200 (µM), S9 metabolic activation: with S9, exposure time: 3-4 hours | 0.51 | 4.03 | 85.8
concentration: 200 (µM), S9 metabolic activation: without S9, exposure time: 24 hours | – | – | 5.19

Cc1c(C(=O)O)c(O)cc2c1C(=O)c1c(O)c([C@@H]3O[C@H](CO)[C@@H](O)[C@H](O)[C@H]3O)c(O)c(O)c1C2=O [Carminic acid]
Conditions | hypodiploid nuclei frequency, CHO-K1 [2] [%] | micronucleus frequency, CHO-K1 [1] [%] | relative survival, CHO-K1 [3]
concentration: 4.5 (µM), S9 metabolic activation: with S9, exposure time: 3-4 hours | 0.2 | 1.36 | 55.5
concentration: 4.5 (µM), S9 metabolic activation: without S9, exposure time: 24 hours | 0.7 | 1.92 | 107
concentration: 5.63 (µM), S9 metabolic activation: with S9, exposure time: 3-4 hours | 0.22 | 1.42 | 61.5
concentration: 5.63 (µM), S9 metabolic activation: without S9, exposure time: 24 hours | 0.84 | 1.78 | 96.4
concentration: 7.04 (µM), S9 metabolic activation: with S9, exposure time: 3-4 hours | 0.26 | 2.42 | 68.8
concentration: 7.04 (µM), S9 metabolic activation: without S9, exposure time: 24 hours | 0.86 | 1.92 | 107
concentration: 8.8 (µM), S9 metabolic activation: with S9, exposure time: 3-4 hours | 0.18 | 1.38 | 69.6
concentration: 8.8 (µM), S9 metabolic activation: without S9, exposure time: 24 hours | 0.7 | 2.02 | 96.8
concentration: 11 (µM), S9 metabolic activation: with S9, exposure time: 3-4 hours | 0.18 | 1.46 | 71.8
concentration: 11 (µM), S9 metabolic activation: without S9, exposure time: 24 hours | 0.84 | 1.76 | 105
concentration: 13.7 (µM), S9 metabolic activation: with S9, exposure time: 3-4 hours | 0.26 | 1.92 | 67.3
concentration: 13.7 (µM), S9 metabolic activation: without S9, exposure time: 24 hours | 1.06 | 2.1 | 90.3
concentration: 17.2 (µM), S9 metabolic activation: with S9, exposure time: 3-4 hours | 0.18 | 2.2 | 103
concentration: 17.2 (µM), S9 metabolic activation: without S9, exposure time: 24 hours | 0.92 | 2.04 | 92.9
concentration: 21.5 (µM), S9 metabolic activation: with S9, exposure time: 3-4 hours | 0.3 | 2.04 | 102
concentration: 21.5 (µM), S9 metabolic activation: without S9, exposure time: 24 hours | 2.12 | 1.56 | 96
concentration: 26.8 (µM), S9 metabolic activation: with S9, exposure time: 3-4 hours | 0.12 | 1.88 | 90.9
concentration: 26.8 (µM), S9 metabolic activation: without S9, exposure time: 24 hours | 3.68 | 1.22 | 74.5
concentration: 33.6 (µM), S9 metabolic activation: with S9, exposure time: 3-4 hours | 0.24 | 1.44 | 109
concentration: 33.6 (µM), S9 metabolic activation: without S9, exposure time: 24 hours | 40.8 | 1.48 | 65.2
concentration: 41.9 (µM), S9 metabolic activation: with S9, exposure time: 3-4 hours | 0.18 | 1.58 | 77
concentration: 41.9 (µM), S9 metabolic activation: without S9, exposure time: 24 hours | 2.14 | 1.98 | 104
concentration: 52.4 (µM), S9 metabolic activation: with S9, exposure time: 3-4 hours | 0.08 | 1.54 | 75.7
concentration: 52.4 (µM), S9 metabolic activation: without S9, exposure time: 24 hours | 2.64 | 1.48 | 84
concentration: 65.5 (µM), S9 metabolic activation: with S9, exposure time: 3-4 hours | 0.28 | 1.52 | 67.8
concentration: 65.5 (µM), S9 metabolic activation: without S9, exposure time: 24 hours | 1.2 | 1.38 | 98.6
concentration: 81.9 (µM), S9 metabolic activation: with S9, exposure time: 3-4 hours | 0.24 | 1 | 74.7
concentration: 81.9 (µM), S9 metabolic activation: without S9, exposure time: 24 hours | 1.38 | 2.54 | 106
concentration: 102 (µM), S9 metabolic activation: with S9, exposure time: 3-4 hours | 0.3 | 1.22 | 80.5
concentration: 102 (µM), S9 metabolic activation: without S9, exposure time: 24 hours | 5.4 | 2.2 | 89.9
concentration: 128 (µM), S9 metabolic activation: with S9, exposure time: 3-4 hours | 0.2 | 1.42 | 72.8
concentration: 128 (µM), S9 metabolic activation: without S9, exposure time: 24 hours | – | – | 36.3
concentration: 160 (µM), S9 metabolic activation: with S9, exposure time: 3-4 hours | 0.34 | 1.52 | 84.4
concentration: 160 (µM), S9 metabolic activation: without S9, exposure time: 24 hours | 2.48 | 2.04 | 87.8
concentration: 200 (µM), S9 metabolic activation: with S9, exposure time: 3-4 hours | 0.28 | 1.5 | 95.9
concentration: 200 (µM), S9 metabolic activation: without S9, exposure time: 24 hours | 2.92 | 2.9 | 95.3
